From the supplement of paper PMC3334620
The full ranking holds about 33,000 sequences; the median of “E-score (-0.5 to 0.5)” is about -0.054, and the highest 2% start at about 0.39. This is one part of the list.

Molecular target: Ylr278c (UniProt Q05854)
Assay: PBM E-score (8-mer binding enrichment) (E-score (-0.5 to 0.5)); higher = stronger / more preferred TF binding; most listed sequences are background and not binding sites
Conditions: protein concentration: 200 nM; construct: GST-DNA-binding domain
Protocol: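 Universal 'all 10-mer' protein binding microarrays (Agilent AMADID 015681) probed with GST-tagged S. cerevisiae TFs (full-length or DBD) made by in vitro transcription/translation (PURExpress), about 100-200 nM. Bound TF was detected with fluorescent anti-GST. Each ungapped 8-mer (which stands for itself and its reverse complement) is scored by the PBM enrichment score (E-score), a modified Wilcoxon-Mann-Whitney statistic from -0.5 to +0.5, computed with the Universal PBM Analysis Suite. Scale: above 0.35 generally sequence-specific binding.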

Sequence	PBM E-score
AATTTTCT	0.0945
AACAGTCT	-0.244
GATCTAAC	0.00221
ATAAATCC	0.228
AACAAAGT	0.106
CCCGATTC	0.146
ATTTGAAC	0.0663
ACACTGAC	-0.0733
CCCGCCAC	0.204
AAAGGGCG	-0.0539
TACGCCAA	-0.256
CTTCGTCA	-0.109
CGATACAC	-0.145
CGCCGAGA	0.304
ACCGTTCG	0.0396
CATCAGCA	-0.103
CGTGGCTA	-0.172
GATCCATC	0.219
CATTGGGA	-0.198
AATCAATA	-0.0399
ACGAAGAC	-0.11
CGCTCTGA	-0.0769
CCCCGGTC	0.368
CCCCTCCG	0.342
AACCAATA	0.00861

Sequence	PBM E-score
AAGTGTTG	-0.00324
AACGAACC	-0.0335
TACAGTCA	-0.241
TGCCCCCA	-0.239
CCAGTTGC	0.00748
ATCATTAA	0.0887
TGAGAGCA	-0.163
ACAGCGAA	-0.0695
ACAGTAGC	-0.0733
GATTGCAA	-0.095
AGATGCGC	-0.038
CGAACTAC	0.171
ACTATAAC	-0.2
CTGAGAGC	-0.076
AGAGGTCC	0.062
GCCGACGA	0.248
ACGTAGAC	-0.244
CGATTCGC	0.174
CCGCATAA	0.297
CCAAGAAG	-0.132
AAATCTTA	-0.149
CTTTCGTC	0.0249
ACTATTCG	-0.183
CTGACATA	-0.269
CGGCACTA	0.291

Sequence	PBM E-score
ACCGAGCC	0.0963
TACTAGGA	-0.0371
CCAATCGG	0.217
AGGACACT	-0.115
AGAAAAGC	0.0312
GACGAGAA	-0.105
GGCGCACA	0.145
CGTAAAGC	-0.0859
TAATATCA	-0.113
CTCATCCA	-0.242
TTGGGAAA	-0.0337
ATCTTACA	-0.152
CCCGGTAG	0.252
GTGCCACA	-0.314
ATGTTGCA	-0.281
AAAGGTCA	-0.183
GGGACGAC	-0.246
AGCGACGA	-0.122
TACCATAA	-0.115
TACAATAA	-0.132
AGAGACCG	-0.0104
GCCCAATA	-0.0613
ATTGTCAC	-0.0419
CCTAACCA	-0.146
GGGTAGCA	0.0199

Sequence	PBM E-score
TCACCAGA	-0.141
CCCCGCTA	0.258
GGTCGTTA	-0.0305
CATCCGAA	0.303
CGGCCGTC	0.198
CACTGCCC	-0.00147
AGGCGGCG	0.193
AAAGCGGA	0.324
CTTGGAGC	-0.184
GCACCTCC	0.195
CATGGAGC	-0.157
GCCGTATA	0.0779
CGTTAAAA	-0.0534
ACTATCCC	0.0493
CGGGTAAG	-0.0724
ACCCCCGG	0.334
GGAACACA	0.0707
AAGAGCGC	-0.104
AACGGTAT	-0.0258
CGCGGATC	0.272
CGCACAGC	0.139
AATGGGTA	-0.112
GCCCCTCC	0.0876
CCTGCATA	-0.109
CCCAGTAC	-0.237

Sequence	PBM E-score
AGGACTTA	-0.0757
AGTTCCCC	0.23
AAGTAAGG	0.0127
TACTCGAA	-0.184
AAAGCATC	0.00213
ATGGGGAA	-0.0607
GTGATCAC	-0.0625
AATCGACC	0.0866
AAGGGGGC	-0.244
AGTGAAGC	-0.0584
GGTAAACA	-0.0249
AGCTGAAC	-0.242
AAATCTGG	-0.0117
ATATAATG	-0.326
ACTGTGGG	-0.288
AGATTGCA	-0.125
CGTAGATA	0.0276
CCGGGCAA	0.352
GCGACACA	-0.0107
CACCAGTC	-0.26
ATCGTAGG	-0.276
GGGAGACA	0.121
AATGTGCC	0.0447
GCGTTACC	-0.0406
CCGCGAGC	0.257

Sequence	PBM E-score
GTGTCGCA	0.00208
CCCGCGTC	0.254
GAGTAGCC	-0.125
TCCTTTAA	0.0067
CGAGTGAC	-0.0386
CGGGTTAC	0.174
ACTTTGCT	-0.141
TAAGGTAA	-0.0157
GCTGCAGC	0.153
GCGGATTA	0.261
AACGGATC	0.23
CGATTAGC	-0.00532
ATCATTCA	-0.0937
CGCTAGAG	-0.0923
CTTCAGGC	-0.182
GAGGTGTA	-0.0186
CAAGGGTG	-0.154
GGAACGAA	0.104
ACCCCTTA	-0.0547
GTGTAAGA	-0.283
CTACCGTC	0.0115
CTAGAGAG	-0.282
GCTTCGAA	-0.0463
CTGCGCGA	0.0109
ATATGTGG	-0.192

Sequence	PBM E-score
AGACAACT	-0.0993
GCCTTTAA	-0.0909
AATTCGGC	0.157
CGTCATAC	0.0109
GAGAGAGA	0.007
CCGTCCCA	0.0276
ATGATAAT	-0.0445
ATGCTCGA	-0.158
GGCCTGGA	-0.221
CACAAGTC	-0.191
ACGGATAC	0.171
CTTTGACA	-0.187
CACCAGCC	0.00847
CTTCGCAA	0.0428
GGGCCATA	0.122
TATAGCGA	-0.165
AAACATGA	-0.183
TCTCTTAA	-0.0612
ACCGGTAG	0.165
GATGGGTA	-0.191
AAAGTGGC	-0.105
GCTCATAA	-0.0411
